42 sequences from paper PMC7819943, “Rice protein-binding microarrays: a tool to detect cis-acting elements near promoter regions in rice” can be followed below.

The list shows a part of the results.

This assay has as its target T1, OsWOX13 (Oryza sativa, UniProt Q5QMM3 1-267).
T1 sequence: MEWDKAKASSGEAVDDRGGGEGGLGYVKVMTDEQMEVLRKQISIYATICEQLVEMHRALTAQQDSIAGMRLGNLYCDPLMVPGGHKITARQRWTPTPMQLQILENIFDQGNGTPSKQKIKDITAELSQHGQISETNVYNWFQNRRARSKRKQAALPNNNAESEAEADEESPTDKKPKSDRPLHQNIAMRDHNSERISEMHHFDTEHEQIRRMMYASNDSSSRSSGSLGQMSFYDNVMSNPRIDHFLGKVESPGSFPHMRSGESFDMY
The assay is described as follows: protein-binding microarray (RPBM); PBS, 2% BSA, 51.3 ng/ul salmon testes DNA, 50 uM zinc acetate, 200 nM TF, 25 C, 1 h; high values mean tight binding. The settings on record: protein: recombinant; tags: N-terminal polyhistidine and DsRed monomer fusion (pET32a); label: CyDye5-dUTP incorporated in the synthesized complementary strand; 3' TTTTT single-stranded linker to array surface; dsDNA, one strand shown. The method in brief: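 Binding signal here means per-feature fluorescence intensity in arbitrary units. The values were read on an Axon 4000B scanner after a custom Agilent array, double-stranded by primer extension with Cy5-dUTP, was incubated with 200 nM protein at 25 °C for 1 h in PBS with 2% BSA, salmon testes DNA and 50 µM zinc acetate, then washed. The proteins were transcription factors with an N-terminal polyhistidine tag and DsRed, expressed in E. coli BL21-CodonPlus and purified on Ni–NTA.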
Regarding “CATGATTTGAAATTTGTCAAACAAAGCCTTATTGTTCTTACGGAGTCACCTAGTGCAG”, the binding signal is 31100 fluorescence intensity (a.u.).

On to “CCTGATTTCTAAAGAAAGCCGTCCGGTTTTAACTGAGTCTCGGAGTCACCTAGTGCAG”, for which the binding signal was 10100 fluorescence intensity (a.u.). In the case of “TATTCAGGAATCTGAATTGATTGGCTGTGCTCAAGTTACTCGGAGTCACCTAGTGCAG”, the binding signal is 24200 fluorescence intensity (a.u.). For “GTTGATGGATGACATAAATTGAAGGGAAACAACCACCTCTCGGAGTCACCTAGTGCAG”, the binding signal was 41500 fluorescence intensity (a.u.). As to “CTACAAACCAATCAGTTAATCCCAAGTATATAATCCTAATCGGAGTCACCTAGTGCAG”, the binding signal was 4790 fluorescence intensity (a.u.). Regarding “ACTTGACAGCCCTAATTGATCTTATTACATGCAGAGGATCCGGAGTCACCTAGTGCAG”, the binding signal was 56300 fluorescence intensity (a.u.). For “CTGTAAATTGCAAATCTACAAGAACTCTACATGTCTCTTACGGAGTCACCTAGTGCAG” the value was 4080 fluorescence intensity (a.u.); for “ATATAGTTTCATCACAATTAAATAGAAATTTAATAGTACTCGGAGTCACCTAGTGCAG”, 3180 fluorescence intensity (a.u.); for “CTGATTTGCTCTCTCATCTTTATAAATATGAGCACTCGTCCGGAGTCACCTAGTGCAG”, 19700 fluorescence intensity (a.u.). As for “GTAATCAGTGTGTGATTAATGTGTGGAGAATAGAAAGTGACGGAGTCACCTAGTGCAG”, the binding signal is 7420 fluorescence intensity (a.u.). On to “TACAAATTTGCGCCCTCTAATCATGCATACACATTATGATCGGAGTCACCTAGTGCAG”, for which the binding signal was 8700 fluorescence intensity (a.u.). On to “ATAATTACTAAATATTTAATTTAGGCATAACTAATTATCACGGAGTCACCTAGTGCAG”, for which the binding signal was 9860 fluorescence intensity (a.u.).

In the case of “ACATGACAGCGATTGTTGATTGATTTCATAGTAGTATATGCGGAGTCACCTAGTGCAG”, the binding signal was 40000 fluorescence intensity (a.u.). For the sequence “AAAATTGGTGGAAATGGAGTGAATATGGTGAATATGGCAACGGAGTCACCTAGTGCAG”, the binding signal is 3230 fluorescence intensity (a.u.). The figure for “TGATTCTAACATGATTGGTCCCATGTGCAGATGAGTAAATCGGAGTCACCTAGTGCAG” is 13300 fluorescence intensity (a.u.); for “TGATTGTACGTATTCTGATTGATTGCTTATCGATATCTCACGGAGTCACCTAGTGCAG” it is 26100 fluorescence intensity (a.u.); for “TTTGCTTGATTTTATAATGCCAAGCTTGAGAAAATGGTGGCGGAGTCACCTAGTGCAG” it is 4990 fluorescence intensity (a.u.). In the case of “CGCATATTCACTCATGATTAAAATTTTAGTGGAGTTAAATCGGAGTCACCTAGTGCAG”, the binding signal is 7340 fluorescence intensity (a.u.). For “GTCTCGGATAATTTAAATTTTGTTCATGTAACTCGCAGGTCGGAGTCACCTAGTGCAG” the value was 21600 fluorescence intensity (a.u.); for “TTTAACACTAATCATCACCAAGCGAACATCAAAGTCAAGTCGGAGTCACCTAGTGCAG”, 6410 fluorescence intensity (a.u.); for “AGAGGTGGGATTGAGATTGGAAAATGAATGAAATGTTAGACGGAGTCACCTAGTGCAG”, 11400 fluorescence intensity (a.u.). Take “GATTTGATAATATAATTTAATCCTCCGTAAATGGGTTTCGCGGAGTCACCTAGTGCAG”: the binding signal is 9650 fluorescence intensity (a.u.). In the case of “GGTGATTGCATTTGCTGATGTCAGGTATGCCTATTATATTCGGAGTCACCTAGTGCAG”, the binding signal is 14600 fluorescence intensity (a.u.). Take “ATTCATGATTATGGAGACGTGGCTAGGGCTCAAGTCCAAACGGAGTCACCTAGTGCAG”: the binding signal is 6750 fluorescence intensity (a.u.). Consider “CAATGATCAATAATGTGATTATGTAAAACTTTATAGGCATCGGAGTCACCTAGTGCAG”, for which the binding signal was 20200 fluorescence intensity (a.u.). For the sequence “TAAATTATTATTATTATTATCATCTCCTCCCGCTCCCGCTCGGAGTCACCTAGTGCAG”, the binding signal is 7690 fluorescence intensity (a.u.). Turning to “GATCTTATCCGCCTCATGTGATTGCCGTCCTCCATGGGGACGGAGTCACCTAGTGCAG”, the binding signal is 3400 fluorescence intensity (a.u.). As for “CCCTTAATTATCAAAACCGATGCAATTTGACTCCCTCGGTCGGAGTCACCTAGTGCAG”, the binding signal is 44000 fluorescence intensity (a.u.). Regarding “CAATGATGCACTCAATTTGTTGCTTTGATAGTCGCTTTTGCGGAGTCACCTAGTGCAG”, the binding signal is 5250 fluorescence intensity (a.u.). Consider “TTAGATTTGAACTCTTATTTGTTTCAAATATTTTCCCCTTCGGAGTCACCTAGTGCAG”, for which the binding signal is 10900 fluorescence intensity (a.u.). Regarding “CACCTACTTTCACTTATTATCCAATCACAACATTCTTCCACGGAGTCACCTAGTGCAG”, the binding signal was 4920 fluorescence intensity (a.u.).

On to “ACTGATTAGAATATTCTGCAGAAAATAATGTGTACAAATGCGGAGTCACCTAGTGCAG”, for which the binding signal is 27000 fluorescence intensity (a.u.).

As for “GAATAGACCGAAATTAATTAAGGCAGTAATCACCCAGATGCGGAGTCACCTAGTGCAG”, the binding signal was 16100 fluorescence intensity (a.u.). Take “AACCATGTGATTTTATTTTAAAAGGACTTTTAATGTATGACGGAGTCACCTAGTGCAG”: the binding signal is 3740 fluorescence intensity (a.u.). As for “TAAAATAAAATCAGCTTAATTTTAAAGACTTCGTCCACTGCGGAGTCACCTAGTGCAG”, the binding signal is 3220 fluorescence intensity (a.u.). Consider “TTTTAATTAAAATTTGTCCTCCAACAAACTGGCCAAGCCACGGAGTCACCTAGTGCAG”, for which the binding signal is 33900 fluorescence intensity (a.u.). In the case of “CTTTAATTACTTATTTAATTCTATATGTTGCTAAATTAGTCGGAGTCACCTAGTGCAG”, the binding signal was 34200 fluorescence intensity (a.u.).

As to “CCGGGACTGGAATTTGCGGGATTGCGTTCGTAAACCCTACCGGAGTCACCTAGTGCAG”, the binding signal is 4030 fluorescence intensity (a.u.). In the case of “CGATCTAACCAATCACAAGATTACATGGCAAATAGCGAAGCGGAGTCACCTAGTGCAG”, the binding signal was 4840 fluorescence intensity (a.u.). For “ATGCTAGTGATTGTATGACATGCCTTCAATATGGCCAATGCGGAGTCACCTAGTGCAG” the value was 7860 fluorescence intensity (a.u.); for “TTATCAATGATAGTAATTATATGTCATAGTTGTGAAAAGACGGAGTCACCTAGTGCAG”, 17300 fluorescence intensity (a.u.).

For “ACTGATTATATAATTGTTCCAATAGAACATATATTCTATTCGGAGTCACCTAGTGCAG”, the binding signal is 26000 fluorescence intensity (a.u.).
